Data published in the supplement of paper PMC11417369.
This is one part of the list.

What follows are sequences tested on PfHDP1 homeodomain (GST-tagged) (assay: gcPBM binding intensity (ln(normalized median fluorescence intensity)); higher = stronger DNA binding).
Outline: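 An Agilent 4 × 180k array carrying primer-extended double-stranded 36-bp intergenic genomic probes and negative controls received GST-tagged P. falciparum DNA-binding domains expressed in E. coli, about 25 μg on average, for 1 h. The binding buffer contained 1× PBS, 1% milk, 0.2 mg/ml BSA, 0.5% salmon testes DNA and 0.03% Triton X-100. Binding intensity is the top Masliner-normalised natural-log median intensity across replicate spots of either probe orientation, read after Alexa488 anti-GST antibody staining and a 488 nm scan.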

| Sequence | gcPBM binding intensity (ln) |
| --- | --- |
| AAAAAAAAAAAAAAAAGTACAAATAAAAAAAAAATA [XGTACX_site4814] | 6.33 |
| ATAATTTGTGGACACACACACACACCGACATATATA [CACACA_site8718] | 6.91 |
| TTGTTAATGGTACGAACACACATATAAAGATGCATA [CACACA_site2044] | 6.54 |
| TTATTCACTTCTTTTTAAAAAAAAAAAAAAAAAAAA [CACACA_negctrl_site223] | 6.36 |
| ATTTCGAATATTAAGTGTACAATATAAATATATAAA [XGTACX_site6674] | 6.64 |
| TTATATGAATTTTAGATTTATAATACAAGAATATTC [CACACA_negctrl_site70] | 6.1 |
| TATTATTCATAATTTATCTTTTAAATTAAATCACAA [GTGCAC_negctrl_site288] | 5.91 |
| TATTATTGTCTTTCAAAAAAAAAAAAAAAAAAAAAA [CACACA_negctrl_site1242] | 6.11 |
| TATTTATAATAGTGTACACAATTATAAACTGAATAT [CACACA_site6041] | 6.83 |
| CAACATATATTAATATGTACATATATATAGATATAT [XGTACX_site4107] | 6.33 |
| TTTTTTTCTGTGAGTGCATGTAATAAAATAAATTTA [TGCATGCA_site276] | 7.58 |
| TGTTATTTTAAAAAAAAAATTATTAACTTAAAAAAA [CACACA_negctrl_site1641] | 5.81 |
| TTCAAAAATATATAATGTACACAAATATAAAAGAAT [XGTACX_site1944] | 7.12 |
| TATGTAAAAAATTTAACACACACATATATATATATA [CACACA_site8829] | 9.19 |
| TTACTTAAGAAACACACACACAAAAAAAAAAAAAAA [CACACA_site946] | 6.35 |
| ATCATAATCATAAAAAGTACAAACGATAAAATAAAT [XGTACX_site3832] | 7.09 |
| CTTCTTTTGTGATAAAGTACAAATATTTTGAAATAT [XGTACX_site1156] | 6.46 |
| ATAAATAAATAAATAAATATATATATGAAATAATGT [TGCATGCA_negctrl_site12] | 6.61 |
| TTTTCTATAAGATTTGCACACAACTTATTCTATTAA [CACACA_site3752] | 10.6 |
| AAAAAATATAAAACGAGTACATATATAATAAGCAAA [XGTACX_site1360] | 6.66 |
| TTTCTTAAAATATAAAGTACTAAAATGAAAATATAT [XGTACX_site2173] | 6.47 |
| AAATAAAGAAATATATGTACATATATATATATATAT [XGTACX_site5131] | 9.43 |

| Sequence | gcPBM binding intensity (ln) |
| --- | --- |
| CATAATATTTGTGAAAGTACTTATTTTACAATAGGG [XGTACX_site5004] | 6.6 |
| ATTATAGACAACTCTTTTTCTAAACTATTTTATTTT [CACACA_negctrl_site1754] | 6.35 |
| TTTATTCTCCACACCCGTACACATTTTTTTTGCATA [XGTACX_site5615] | 7.6 |
| AAAAAAAAAAAAAACACACACACACGCAGATATATA [CACACA_site6672] | 6.65 |
| GCTAAACAATAGTTTGCACACAATTTAAATATATAT [CACACA_site193] | 10.3 |
| AATGCACTATTTAAAAGTACACATAAGAAAAGCATA [XGTACX_site1739] | 7.88 |
| AATATAATATAATGCACACATAAAAAAAAAAAAATC [CACACA_site1303] | 10.6 |
| TTATATACATTAAATGAACACACATAAATAAATTAC [CACACA_site8927] | 6.48 |
| AGTATAAATATATTATGTACATATATATTATACTTA [XGTACX_site2623] | 6.13 |
| ATATATATATACATATGTACATATATATTTATACAT [XGTACX_site2463] | 8.53 |
| TACACAGACGGACACACACACACACTAGAAAAAAAA [CACACA_site4435] | 6.81 |
| AAAGAATTTGCATATACACACAAAAAAATAAATACA [CACACA_site4373] | 7.31 |
| ATTTCTTTTACATTTACATGCAATGCTCTATAGATA [TGCATGCA_site62] | 7.64 |
| ATTTTTTTTATGTATTATGCTTTTATATCCTTCATA [CACACA_negctrl_site1244] | 7.02 |
| CTAAAAGAACATGTGTGTACTTATGTTCTCTTTTTT [XGTACX_site5983] | 6.04 |
| AATAAAAAAAAAAAAAAAAAAAAAAAGACACTAAAA [CACACA_negctrl_site1075] | 5.73 |
| CTTACCAAAAAACACACACACACAAAATATATAAAT [CACACA_site1870] | 6.9 |
| TTATTTTTTAGTAGTACACACTTTTTGTACCTTTTA [CACACA_site4503] | 6.7 |
| GACACCCATAAATATACACACGCACAACACAAAATA [CACACA_site8944] | 7.7 |
| TTATTTTCTTTTTCTTGTACACACATAATATGGATG [XGTACX_site1481] | 6.82 |
| TTGTTAATAAAAATATTGGAAAGTTTATAAAATTTT [CACACA_negctrl_site1487] | 6.11 |
| ATAATATATATACAAACACACAATTGCGTCCACATT [CACACA_site8515] | 7.04 |

| Sequence | gcPBM binding intensity (ln) |
| --- | --- |
| TATAATAAATGGACGGTGCGACATGACCATATGTGT [GTGCAC_site9476] | 6.77 |
| AAAAAGAAGAATAATACACACAAATTATTTTATATA [CACACA_site1919] | 6.42 |
| TATTCCAAAAATGTGTGTACATAAATACAATATTAT [XGTACX_site2653] | 6.49 |
| TTAAGATGCATAAATACATGCAAAGTAAATAATTCT [TGCATGCA_site517] | 6.08 |
| TATAATCCATAAGAAGCACACACATATATATATATT [CACACA_site8394] | 6.6 |
| AATAAATATTAAATGACAAAAAAAAAAAAAAAAGGG [XGTACX_negctrl_site15] | 6.6 |
| ATTATAAGAATTAAAAGAAACAAAATTTTAATTATA [CACACA_negctrl_site610] | 6.39 |
| CATATAATTATTTTCACACATATAACTACATCTATA [CACACA_site5915] | 6.68 |
| TAAGATCCTTAAAACGCATGCAGTATTTTTATTTCT [TGCATGCA_site532] | 6.16 |
| TAGCCAAAAGGATATGCACACACACCCACATATATA [CACACA_site8684] | 8.89 |
| ATATAAATAAAAAAAAGTACATAATATATAAAAATA [XGTACX_site3065] | 6.55 |
| CTTTTACGTTTAGGATGTACATTTAAAAAAAAAGAA [XGTACX_site8032] | 6.65 |
| TAAGGGATATGTATATGTACATACAAATATATATAA [XGTACX_site2892] | 6.63 |
| TGTAGATTTTGTAACACACACATATAAATACAGATA [CACACA_site5343] | 6.68 |
| AATTTCATTTTTAGAAGTACATTTATATTAAAAATC [XGTACX_site2888] | 6.08 |
| TTTGCTTCGATATATTCACACATTTTTTTTCTTATT [CACACA_site4499] | 6.92 |
| AAATGTAATAAATATACACACACAAATATATATATA [CACACA_site8754] | 8.64 |
| TCTTTCTGCTCTTATACACACAAATAAAGATTTTTT [CACACA_site2700] | 8.08 |
| CATTGACCATTAATTTGTACACAAGGGGAAATGAGG [XGTACX_site1756] | 6.64 |
| TATATATATATATATATATATATATATATATATATT [CACACA_negctrl_site1440] | 9.47 |
| ATGAAATTTTCATATTGTACTATTAAAAATATATTT [XGTACX_site1989] | 6.24 |
| TTAATTTGTTCTTACACACACATATAAATATATTTA [CACACA_site6676] | 6.99 |

| Sequence | gcPBM binding intensity (ln) |
| --- | --- |
| ATATTTAAGGCGTGTATGCACACGACTATTCCGTAT [CACACA_site1080] | 8.25 |
| TATTTTGTTTTAAAAGTACACACTTTTAATTAGATT [CACACA_site1180] | 6.58 |
| TTATCATTATATAGTTGTACATATTTATTTATAAAA [XGTACX_site2310] | 6.61 |
| TTTGTATAATACATGTGTACGTATTTTTATATAAAT [XGTACX_site8656] | 6.8 |
| AGAACTAAAAGAACATGTACATAAATTCTAAATAAT [XGTACX_site4084] | 6.38 |
| ATGATACTAAAAAATTGTACATATAACAAAAGGTAT [XGTACX_site2527] | 6.73 |
| CATATATTTTGAAACACACACATATATAATATACAT [CACACA_site1158] | 6.66 |
| ATAATTGTCCATTTTTTCTTTTTTTTTTTCTTTTTA [CACACA_negctrl_site928] | 5.94 |
| CGCACAGACGGACACACACACACATATATATATATA [CACACA_site5249] | 9.17 |
| AAAAAAAAAAAAAAAACACACATTTAGCAATCTACA [CACACA_site3706] | 6.62 |
| ATATGATCATACTGTGCATGTTAATGCAAATTTTAT [TGCATGCA_site984] | 9.78 |
| TACATATATTATACATGTACACATTTATACATATCG [XGTACX_site2866] | 6.54 |
| TATATGTATTTGTATACACACAAATGTATATATTTA [CACACA_site1265] | 6.46 |
| ATGTATTAAAATTTATGTACTTATATATAAATATAT [XGTACX_site1025] | 6.23 |
| TTATATGGATATACAGTGCATATATACATATAAGTG | 7.89 |
| AATATATATACTATAACACACATACACCCAAAAAAA [CACACA_site4453] | 7.26 |
| AAAAAAAAAAGAAACACACACATATATATATAGAAT [CACACA_site1777] | 6.79 |
| CATACCTTTTAATGTACACACATTTCTTTTTTGTTA [CACACA_site892] | 6.75 |
| TATAAACATAATATTTAACACACATGAAGATGTATA [CACACA_site8252] | 6.29 |
| TTAACAAAACATAAGGTGCTTAAAATTTTATATCAC [GTGCAC_site9839] | 6.36 |
| TCTGTTAAACAAAAAAGTACTAAAATAATGTAAAAT [XGTACX_site6826] | 6.68 |
| TATATATTGTTATATACACACATGTATTTAAAAAAT [CACACA_site5737] | 6.35 |
